# Measured values as given in paper PMC9597577, “Mutant Ras and inflammation-driven skin tumorigenesis is suppressed via a JNK-iASPP-AP1 axis” (Cell Reports, 2022).
# By UniProt entry, the sequences of proteins in these tests, tags left out.
# UniProt P01100: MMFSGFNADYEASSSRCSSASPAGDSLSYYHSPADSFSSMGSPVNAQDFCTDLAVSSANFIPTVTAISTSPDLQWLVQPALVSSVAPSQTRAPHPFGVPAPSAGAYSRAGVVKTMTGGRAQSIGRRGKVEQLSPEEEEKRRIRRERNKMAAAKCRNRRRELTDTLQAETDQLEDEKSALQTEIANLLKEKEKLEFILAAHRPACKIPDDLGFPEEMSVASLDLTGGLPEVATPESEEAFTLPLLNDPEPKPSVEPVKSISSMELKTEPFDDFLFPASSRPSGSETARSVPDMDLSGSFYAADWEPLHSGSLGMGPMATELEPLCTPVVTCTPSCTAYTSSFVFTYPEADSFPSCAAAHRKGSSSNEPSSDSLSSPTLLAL
# These are yes or no findings as the source states them, for the method shown. For some assays here: Binding seen in cells or lysates may run through a third protein. Some results given as binding are weak or reduced against the parent protein; the word gives no strength.
# T1: iASPP (endogenous, immunoprecipitated with LX49.3 or LX128.5) (human (endogenous in HaCaT)) (UniProt Q8WUF5)
# T1 sequence: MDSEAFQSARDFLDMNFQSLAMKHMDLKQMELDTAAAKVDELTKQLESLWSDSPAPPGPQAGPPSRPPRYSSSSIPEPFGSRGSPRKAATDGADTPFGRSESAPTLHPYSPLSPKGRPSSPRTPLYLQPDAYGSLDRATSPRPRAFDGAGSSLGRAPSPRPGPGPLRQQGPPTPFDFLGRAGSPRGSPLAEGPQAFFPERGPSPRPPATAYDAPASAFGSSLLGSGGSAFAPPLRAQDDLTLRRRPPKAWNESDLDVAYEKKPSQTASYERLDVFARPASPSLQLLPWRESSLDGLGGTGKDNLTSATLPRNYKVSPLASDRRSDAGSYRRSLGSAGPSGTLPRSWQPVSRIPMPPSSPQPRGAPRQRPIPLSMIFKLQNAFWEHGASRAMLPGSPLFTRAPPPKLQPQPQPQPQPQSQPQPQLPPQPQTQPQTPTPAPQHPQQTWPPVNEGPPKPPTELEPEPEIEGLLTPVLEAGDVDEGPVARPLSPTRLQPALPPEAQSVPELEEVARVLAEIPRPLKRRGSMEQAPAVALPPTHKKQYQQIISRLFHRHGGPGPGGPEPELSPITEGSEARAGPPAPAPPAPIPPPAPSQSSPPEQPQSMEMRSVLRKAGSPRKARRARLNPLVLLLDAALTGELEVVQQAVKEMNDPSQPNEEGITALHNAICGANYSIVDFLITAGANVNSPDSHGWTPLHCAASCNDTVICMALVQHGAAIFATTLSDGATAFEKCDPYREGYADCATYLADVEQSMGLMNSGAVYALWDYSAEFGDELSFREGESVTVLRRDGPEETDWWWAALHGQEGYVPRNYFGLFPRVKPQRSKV
# T2: iASPP (endogenous, HaCaT) (human (endogenous in HaCaT)) (UniProt Q8WUF5)
# T2 sequence: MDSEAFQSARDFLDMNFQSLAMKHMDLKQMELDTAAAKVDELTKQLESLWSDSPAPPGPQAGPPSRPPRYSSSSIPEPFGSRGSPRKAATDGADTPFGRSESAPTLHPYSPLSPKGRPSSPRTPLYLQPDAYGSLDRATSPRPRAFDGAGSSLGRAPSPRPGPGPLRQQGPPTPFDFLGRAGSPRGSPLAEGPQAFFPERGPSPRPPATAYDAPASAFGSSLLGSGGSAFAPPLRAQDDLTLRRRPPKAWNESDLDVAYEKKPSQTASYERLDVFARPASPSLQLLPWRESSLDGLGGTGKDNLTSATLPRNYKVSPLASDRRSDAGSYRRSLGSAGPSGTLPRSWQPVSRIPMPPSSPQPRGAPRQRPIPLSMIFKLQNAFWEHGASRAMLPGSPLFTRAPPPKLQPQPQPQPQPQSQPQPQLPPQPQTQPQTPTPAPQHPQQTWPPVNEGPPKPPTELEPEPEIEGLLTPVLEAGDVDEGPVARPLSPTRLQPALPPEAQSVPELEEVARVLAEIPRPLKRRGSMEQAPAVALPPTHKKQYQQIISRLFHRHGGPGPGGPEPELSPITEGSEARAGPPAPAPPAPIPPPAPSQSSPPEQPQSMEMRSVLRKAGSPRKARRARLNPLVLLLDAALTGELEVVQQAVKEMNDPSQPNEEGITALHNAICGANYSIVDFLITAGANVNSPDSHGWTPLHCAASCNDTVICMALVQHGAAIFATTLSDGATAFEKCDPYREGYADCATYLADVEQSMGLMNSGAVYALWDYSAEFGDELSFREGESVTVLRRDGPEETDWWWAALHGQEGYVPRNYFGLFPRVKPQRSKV
# T3: ASPP1 CTD (887–1090) (UniProt Q96KQ4)
# T3 sequence: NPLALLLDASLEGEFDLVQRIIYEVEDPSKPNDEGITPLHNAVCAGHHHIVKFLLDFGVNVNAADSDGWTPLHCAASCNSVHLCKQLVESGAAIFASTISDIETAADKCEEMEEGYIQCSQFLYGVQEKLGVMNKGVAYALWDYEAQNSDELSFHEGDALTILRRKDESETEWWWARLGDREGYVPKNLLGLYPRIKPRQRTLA
# T4: iASPP CTD N813A Y814A (625–828) (UniProt Q8WUF5)
# T4 sequence: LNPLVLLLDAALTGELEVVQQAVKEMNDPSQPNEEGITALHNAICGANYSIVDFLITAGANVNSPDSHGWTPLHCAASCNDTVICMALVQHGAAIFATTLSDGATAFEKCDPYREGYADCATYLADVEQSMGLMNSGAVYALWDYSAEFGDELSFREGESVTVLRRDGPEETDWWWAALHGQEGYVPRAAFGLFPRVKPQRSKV
# T5: iASPP (endogenous, IMOK) (mouse (endogenous in IMOK)) (UniProt Q5I1X5)
# T5 sequence: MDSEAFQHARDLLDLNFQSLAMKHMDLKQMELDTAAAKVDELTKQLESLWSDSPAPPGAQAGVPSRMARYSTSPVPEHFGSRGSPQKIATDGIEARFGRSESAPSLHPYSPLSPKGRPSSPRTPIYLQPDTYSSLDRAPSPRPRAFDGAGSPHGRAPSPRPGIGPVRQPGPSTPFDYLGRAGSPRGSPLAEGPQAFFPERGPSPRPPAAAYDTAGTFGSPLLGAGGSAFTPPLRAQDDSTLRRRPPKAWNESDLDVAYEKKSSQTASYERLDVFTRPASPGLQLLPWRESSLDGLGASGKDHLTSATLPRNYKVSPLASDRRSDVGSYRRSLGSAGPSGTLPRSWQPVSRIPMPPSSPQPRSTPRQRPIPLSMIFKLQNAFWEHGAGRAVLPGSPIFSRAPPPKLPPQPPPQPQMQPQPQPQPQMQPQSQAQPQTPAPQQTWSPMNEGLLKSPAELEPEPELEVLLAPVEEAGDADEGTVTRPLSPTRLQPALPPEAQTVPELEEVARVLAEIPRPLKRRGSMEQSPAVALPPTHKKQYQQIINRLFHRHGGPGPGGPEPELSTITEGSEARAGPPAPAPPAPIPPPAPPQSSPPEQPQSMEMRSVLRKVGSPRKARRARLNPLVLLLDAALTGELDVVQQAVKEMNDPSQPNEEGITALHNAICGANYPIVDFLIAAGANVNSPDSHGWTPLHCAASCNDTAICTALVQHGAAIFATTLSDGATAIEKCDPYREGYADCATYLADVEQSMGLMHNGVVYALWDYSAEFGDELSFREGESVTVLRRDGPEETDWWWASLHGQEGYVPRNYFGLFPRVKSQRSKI
# B1: JunD (endogenous, HaCaT) (protein, UniProt P17535 1-347)
# chain: METPFYGDEALSGLGGGASGSGGSFASPGRLFPGAPPTAAAGSMMKKDALTLSLSEQVAAALKPAAAPPPTPLRADGAPSAAPPDGLLASPDLGLLKLASPELERLIIQSNGLVTTTPTSSQFLYPKVAASEEQEFAEGFVKALEDLHKQNQLGAGAAAAAAAAAAGGPSGTATGSAPPGELAPAAAAPEAPVYANLSSYAGGAGGAGGAATVAFAAEPVPFPPPPPPGALGPPRLAALKDEPQTVPDVPSFGESPPLSPIDMDTQERIKAERKRLRNRIAASKCRKRKLERISRLEEKVKTLKSQNTELASTASLLREQVAQLKQKVLSHVNSGCQLLPQHQVPAY
# B2: JunB (endogenous, HaCaT) (protein, UniProt P17275 1-347)
# chain: MCTKMEQPFYHDDSYTATGYGRAPGGLSLHDYKLLKPSLAVNLADPYRSLKAPGARGPGPEGGGGGSYFSGQGSDTGASLKLASSELERLIVPNSNGVITTTPTPPGQYFYPRGGGSGGGAGGAGGGVTEEQEGFADGFVKALDDLHKMNHVTPPNVSLGATGGPPAGPGGVYAGPEPPPVYTNLSSYSPASASSGGAGAAVGTGSSYPTTTISYLPHAPPFAGGHPAQLGLGRGASTFKEEPQTVPEARSRDATPPVSPINMEDQERIKVERKRLRNRLAATKCRKRKLERIARLEDKVKTLKAENAGLSSTAGLLREQVAQLKQKVMTHVSNGCQLLLGVKGHAF
# B3: JunD (endogenous, IMOK) (protein, UniProt P15066 1-341)
# chain: METPFYGEEALSGLAAGASSVAGATGAPGGGGFAPPGRAFPGAPPTSSMLKKDALTLSLAEQGAAGLKPGSATAPSALRPDGAPDGLLASPDLGLLKLASPELERLIIQSNGLVTTTPTSTQFLYPKVAASEEQEFAEGFVKALEDLHKQSQLGAATAATSGAPAPPAPADLAATPGATETPVYANLSSFAGGAGPPGGAATVAFAAEPVPFPPPPGALGPPPPPHPPRLAALKDEPQTVPDVPSFGDSPPLSPIDMDTQERIKAERKRLRNRIAASKCRKRKLERISRLEEKVKTLKSQNTELASTASLLREQVAQLKQKVLSHVNSGCQLLPQHQVPAY
# B4: JunB (endogenous, IMOK) (protein, UniProt P09450 1-344)
# chain: MCTKMEQPFYHDDSYAAAGYGRSPGSLSLHDYKLLKPTLALNLADPYRGLKGPGARGPGPEGSGAGSYFSGQGSDTGASLKLASTELERLIVPNSNGVITTTPTPPGQYFYPRGGGSGGGTGGGVTEEQEGFADGFVKALDDLHKMNHVTPPNVSLGASGGPQAGPGGVYAGPEPPPVYTNLSSYSPASAPSGGSGTAVGTGSSYPTATISYLPHAPPFAGGHPAQLGLSRGASAFKEEPQTVPEARSRDATPPVSPINMEDQERIKVERKRLRNRLAATKCRKRKLERIARLEDKVKTLKAENAGLSSAAGLLREQVAQLKQKVMTHVSNGCQLLLGVKGHAF
# What was measured:
# [1] = target: T1, iASPP (endogenous, immunoprecipitated with LX49.3 or LX128.5) (human (endogenous in HaCaT)); assay: co-IP; IP of endogenous iASPP with anti-iASPP LX49.3 from lysates of UV-irradiated cells, blot for AP1 members; each sign is one experiment (biological replicate)
# [2] = target: T1, iASPP (endogenous, immunoprecipitated with LX49.3 or LX128.5) (human (endogenous in HaCaT)); assay: co-IP; IP of endogenous iASPP with anti-iASPP LX49.3 from lysates of control (CTRL) cells, blot for AP1 members; each sign is one experiment (biological replicate)
# [3] = target: T1, iASPP (endogenous, immunoprecipitated with LX49.3 or LX128.5) (human (endogenous in HaCaT)); assay: co-IP; IP of endogenous iASPP with anti-iASPP LX128.5 from lysates of control (CTRL) cells, blot for AP1 members; each sign is one experiment (biological replicate)
# [4] = target: T1, iASPP (endogenous, immunoprecipitated with LX49.3 or LX128.5) (human (endogenous in HaCaT)); assay: co-IP; IP of endogenous iASPP with anti-iASPP LX128.5 from lysates of UV-irradiated cells, blot for AP1 members; each sign is one experiment (biological replicate)
# [5] = target: T2, iASPP (endogenous, HaCaT) (human (endogenous in HaCaT)); assay: co-IP; lysates of UV-irradiated HaCaT cells (also with DMSO or p38 inhibitor); anti-iASPP LX49.3 or LX128.5, or anti-JunD, with protein G agarose overnight at 4°C; endogenous proteins
# [6] = target: T2, iASPP (endogenous, HaCaT) (human (endogenous in HaCaT)); assay: co-IP; unfractionated lysates of untreated HaCaT cells (also UV-irradiated cells pre-treated with JNK inhibitor); anti-iASPP LX49.3 or LX128.5, or anti-JunD, with protein G agarose overnight at 4°C; endogenous proteins
# [7] = target: T3, ASPP1 CTD (887–1090); assay: ITC; VP-ITC; 450 µM peptide (syringe) titrated to 30 µM ASPP family CTD (cell), 25 steps of 10 µL, 12 °C; 25 mM HEPES pH 7.5, 150 mM NaCl, 500 µM TCEP; AB hetero association model (SEDPHAT); both purified
# [8] = target: T4, iASPP CTD N813A Y814A (625–828); assay: as above
# [9] = target: T3, ASPP1 CTD (887–1090); assay: ITC; VP-ITC; 450 μM peptide titrated to 30 μM ASPP family CTD at 12°C; 25 mM HEPES pH 7.5, 150 mM NaCl, 500 μM TCEP; AB hetero association model; both purified
# [10] = target: T4, iASPP CTD N813A Y814A (625–828); assay: as above
# [11] = target: T2, iASPP (endogenous, HaCaT) (human (endogenous in HaCaT)); assay: condition: only UV-treated HaCaT cells (also with DMSO or p38 inhibitor); co-IP; lysates of UV-irradiated HaCaT cells (also with DMSO or p38 inhibitor); anti-iASPP LX49.3 or LX128.5, or anti-JunD, with protein G agarose overnight at 4°C; endogenous proteins
# [12] = target: T2, iASPP (endogenous, HaCaT) (human (endogenous in HaCaT)); assay: co-IP; nuclear fraction lysates from subcellular fractionation of HaCaT and IMOK keratinocytes; anti-iASPP LX128.5 or LX49.3; endogenous proteins
# [13] = target: T5, iASPP (endogenous, IMOK) (mouse (endogenous in IMOK)); assay: as above
molecule,measurement,setting,value
c-Fos (endogenous) (from UniProt P01100 1-380),binding,[1],no binding
same,binding,[2],no binding
same,binding,[3],no binding
same,binding,[4],no binding
"c-Fos (endogenous, HaCaT) (from UniProt P01100 1-380)",binding,[5],no binding
same,binding,[6],no binding
WLKPAAAPPPTPLRADGAPSA [JunD peptide (…)],binding,[7],no binding (tested: 450 µM peptide titrated to 30 µM CTD)
same,binding,[8],no binding (tested: 450 µM peptide titrated to 30 µM CTD)
same,binding,[9],no binding (tested: 450 μM peptide titrated to 30 μM CTD)
same,binding,[10],no binding (tested: 450 μM peptide titrated to 30 μM CTD)
B1,binding,[11],no binding
same,binding,[6],binds
same,binding,[12],binds
B2,binding,[6],binds
same,binding,[12],binds
B3,binding,[13],binds
B4,binding,[13],binds
